These results are taken from patent publication US8383125B2, “Antimicrobial protein” (Agriculture Victoria Services Pty, Limited, priority 2006, dated 2013).

The test system of the test is gram-negative bacteria, gram positive bacteria and a fungus. Conditions: summary of Table 1; for MIC against gram-negative bacteria as a class: gram-negative bacteria tested.

Where no end group is shown, it is not given here.

Regarding “KRGFGKKLRKRLKKFRNSIKKRLKNFNVVIPIPLP-NH2 [SEQ ID NO: 2]”, the “MIC against Bacillus subtilis, Streptococcus pyogenes, and Streptococcus equi equi” value was “less than 2.5 μg/ml”; the “MIC against E. coli, Pseudomonas spp. including P. aeruginosa and Proteus vulgaris” value was “less than 2.5 μg/ml”; the “MIC against all microorganisms tested” value was “less than 10 μg/ml”; the “MIC against gram-negative bacteria as a class” value is reported as “less than 5 μg/ml”.

For the substance “KRGLWESLKRKATKLGDDIRNTLRNFKIKFPVPRQ-NH2 [SEQ ID NO: 19]”, the “MIC against gram-negative bacteria as a class” value was more than 5.0 µg/mL.
